Measurements as given in the supplement of paper PMC10126150.
Values marked as one replicate rest on one cluster of the flow cell; about a third of the high ones do not repeat.

These sequences were tested on ATP (assay: switch fluorescence ratio, 500 uM ATP over buffer (Cy3 cluster intensity, sum of 5 cycles each) (fold (ratio)); higher = stronger signal-on switching upon ATP binding; sequences stand for … in TCGTCGGCAGCGTCAGATGTGTATAAGAGACAGTTTTTTTTTTTTTTTTTTTTTTTTT…TC). Conditions: aptamer strand: ATP DNA aptamer (quencher-CACCTGGGGGAGTATTGCGGAGGAAGG + anchor), 100 nM annealed; ATP concentration: 500 uM; one replicate.
Outline: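 Switching-strand clusters labelled with Cy3 on a modified Illumina MiSeq flow-cell were annealed to 100 nM quencher-labelled ATP aptamer, imaged in selection buffer, and re-imaged after 15 min with 500 uM ATP at 22 °C. This was done over five cycles with NaOH stripping and re-annealing in between. The fluorescence ratio is summed target-cycle over summed buffer-cycle Cy3 intensity per cluster, averaged per switch-domain sequence, excluding clusters outside 100-1000 RFU.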
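Also: ATP exposure 15 min at 22 °C before imaging.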

Sequence	switch fluorescence ratio
GACTATTTAT	1.04
ACATTGCATT	0.987
CCAGCTCACG	1.04
CATTACGTTC	1
CCCCGACGAT	2.47
CAGACAATGG	1.01
TTCCCGGT	1
TCTCAAGTGT	0.992
AAATGAGCGT	1.04
AGGGGCGCCC	1.05
CGCATCTGCC	1.23
GCACTTATTA	1.08
GCACGCGCGT	0.926
ATAAAGTCCA	1.01
CAGTTTGAAA	1.02
ATGTCACGC	1.1
GTTCGGCCTT	1.06
ATTCTAGCAG	1.04
ACTGCAAATA	1.23
CGATCTTCCG	1.14
TGCTCGAGGA	0.975
ATAGAGCTT	1.01
GCCCACGTTT	1

Sequence	switch fluorescence ratio
TGCTAAAGTT	1.02
GTGGTAGAT	0.997
CGGTACAG	1.01
ACCTGATTT	1.01
CCTTTTTTAG	1.02
GAGACGCTAT	1.24
CCTCACAGG	1.52
GGGCGATTAG	1.06
ACTATAGTCG	1.07
ATTTACCTAG	1.01
TTTTGCCTGG	1.27
CATAAGAGAT	1.03
CGGATAAATA	1.02
GTTGTATGGT	1
CGCTGACACG	1.06
CACGGGTGTG	1.07
ACGGCGTAGC	1.04
CACCACCCC	1.22
TCCTACTGAT	1.05
AGCTCTTCCC	1.25
AAATGTTGGC	1.03
TTACTCAAGG	1.04
CTTTACCCCT	2.07

Sequence	switch fluorescence ratio
GAGACTTGAA	1
AGCTTGTCGT	1
GATACATAGG	1.07
GCTTATTTGG	0.993
AAAAGATGGA	1.09
AGGTGCAAGC	0.979
ATATATCCAG	1
GGGCTAAGCC	0.978
AGATTCACGG	1.03
ACGAGCGCCG	1.05
GGAACCTGCG	1.18
TGGTGTGCAC	1
AGGTACCATA	1.08
CATCCCGCCT	1.42
GAGAACGGGT	1.01
CCGCGTCTCT	2.36
GGGTGGG	1
TAGCTGTCCT	1.03
CTAGGTAGCA	1.03
CTCAACCCAA	1.11
GCTCCTTGCA	1.05
TAAAATTGAC	1.01
AAGTTAATCA	1.01

Sequence	switch fluorescence ratio
GATGGCAACG	1.03
CGGAGCCCCG	0.946
TAGACACTGT	1.01
GTTTGAAAGC	0.983
TACTAGGGCG	1.05
AGCATGTGCT	1.01
TGTGTGTGCT	0.979
CATGCTATC	1.07
TTCCGCTAGG	1.08
TGAGCAAACC	1.45
CAACAGCGAC	1.56
ATCGTGTCGA	0.999
CGGACCTGGA	1.17
ATGTAAAAGG	0.966
TGGGTCCCGT	1.01
TGCGCTGAGA	1.04
TCTCGGCTAA	2.38
AAGAATTCTG	0.973
TACGGCAAGG	1.07
TTAAAGAGAT	0.947
GCCTAAGGAG	0.982
GAACAGAGCG	1.02
GTGAGGGTGT	1.08

Sequence	switch fluorescence ratio
TGCTACCACG	1.05
CGCTGCCTCG	1.03
ATTACGTAGT	1
GTTGGTAAAG	0.968
TATGTGAGAA	1
TACCTATTAC	1.11
TCCCGAAGTT	1.08
TAGGAGTCTG	1.02
TGATACTCCT	1.38
CAAGTTTGGC	1.04
TGGGTCTGAA	1.02
GACCTAAAGT	1.32
ATGGTAGGTT	0.941
GTTTCTTTAG	0.995
AGGTTTCGG	1.04
AAATTAACTT	1.06
AGCCGCTCCC	2.02
AGTGGGCCGT	0.994
AATGTTAGGT	0.971
TCTCAGTGTG	2.57
CGAGCTCGGG	0.985
GCTTCAAACT	0.981
GTAGCGTTGG	1.05

Sequence	switch fluorescence ratio
TCAGCGTTCA	1
GAGGACTTCG	1
GCATTCGTTG	1.03
TTGGGTGT	1.01
GCACTCCTTA	1.01
TCAGTTCTAA	0.986
AAGCAAATAG	2.14
TACAGTGGGT	0.997
ATCATCTGTA	1.02
CACATAATAA	0.988
AGTGAACCGT	0.983
TCATACTACG	1.09
ATAGGGAGG	0.977
CTACGGAGGA	1.16
GAGAGGTTAT	1.03
TCGGTTTACT	1.04
TTGAGTGTGA	1.04
TAATTAAGC	0.997
TCTTGAGTTG	1.02
CTGATAGGTA	0.961
GAACTAAATA	1.06
TTAATCGGTC	1.01
AATACTTTGT	1

Sequence	switch fluorescence ratio
CTAAAGCCA	1.02
CACCGGGGAA	0.997
ACTACTTCAT	1.06
GAACGATTCC	1.21
TTCCGGTCTA	1.05
TCGCATGTAA	1.11
GCCTAGTTTT	1
CGAATCTCAA	1.06
CGCGGACGCC	1.02
CAATGAAGTA	0.966
CGCACTGGGA	1
TTTCAGTAAC	0.988
CCTGTTACAT	1.03
TTGTAAGGAC	1.05
GAGCCATCAC	1.02
TGGGCTCTTA	0.979
GCTCTCTC	0.999
AATTTGACGG	1.01
TATACGGCA	1.14
CGGACCCAGA	1.2
